Laboratory results as given in publication PMC12040169 (PLOS Biology, 2025).
The list shows a part of the results.

test system: T1, C. trachomatis L2/434/Bu expressing GFP (CTL2-GFP); set-up: species or system HeLa; C. trachomatis total inclusion area by high-content imaging, normalised to DMSO; settings: total inclusion area; 28.5 h, 10 µM; inhibitor
T1 construct: L2/434/Bu GFP intracellular growth in HeLa cells
Method in brief: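 Bulk GFP and resorufin signals were read first. Wells were then fixed, stained with Hoechst and imaged to detect GFP inclusions and host nuclei. MICs followed the previously described calculation.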

Compound	% of control remaining
CC(C)c1ccc(N2C(=O)[C@@H]3C[C@@H](NC(=O)c4cccs4)CCN3C2=O)cc1 [CBK289541]	107.012
FC(F)(F)c1cccc(-c2nccnc2NCc2cccs2)c1 [CBK037298]	89.8983
O=C(CN1C(=O)c2ccccc2C1=O)Nc1cccc2ncccc12 [CBK262761]	94.527
Cn1c(CN2CCN(C(=O)c3ccco3)CC2)nc2cc([N+](=O)[O-])ccc21 [CBK268473]	78.0798
CC(=O)Nc1ccc(Cc2nc(C3CC3)no2)cc1 [CBK305197]	51.3032
COC1C(O)C(CO)OC1n1cc(F)c(=O)[nH]c1=O (stereo not drawn) [CBK201253]	105.481
NCCc1c[nH]c2ccc(OCC(=O)O)cc12 [CBK265853C]	119.567
NC(=O)C1(Cc2ccc(-c3ccccc3)cc2)CCN(C(=O)CCc2ccccc2)CC1 [CBK285772]	54.8881
CCOc1ccc(-n2c(SCc3ccc(Br)cc3)nnc2-c2ccncc2)cc1 [CBK266017]	113.695
Cc1ccccc1C(=O)NCC(=O)Nc1ccc(Cl)nc1 [CBK091335]	100.677
c1ccc2c(CNCc3ccc4c(c3)OCO4)c[nH]c2c1 [CBK262159]	84.9179
O=C(CCc1ccccc1)N/N=C/c1cc2c(cc1[N+](=O)[O-])OCO2 [CBK261221]	82.0672
Cc1cc(C)n2c(SCC(=O)c3ccccc3)nnc2n1 [CBK265378]	95.6757
Cc1nc(CN2CCN(C(=O)C3C4CCCCC43)CC2)cs1 (stereo not drawn) [CBK281607]	107.423
COc1ccc(C(=O)N/C(=C/c2ccc([N+](=O)[O-])cc2)c2nc3ccc(C(F)(F)F)cc3[nH]2)cc1OC [CBK263199]	76.0318
C=CCO[C@@H]1C[C@H]2C(=O)N3CCN(C(=O)NC4CCCCC4)C[C@H]3C(=O)N2C1 [CBK289619]	109.048
N#Cc1cccc(C(=O)N2CCCN(Cc3ccc(Cl)cc3)CC2)c1 [CBK305323]	70.7047
Cc1ccc(C(O)CN2CCC(O)(c3ccccc3F)CC2)cc1 (stereo not drawn) [CBK283310]	100.004
O=C(CSCc1c(F)cccc1Cl)NCc1ccccc1Cl [CBK269155]	100.937
Cc1ccc(CC(=O)N2CCCC2c2n[nH]cc2-c2ccncc2)cc1 (stereo not drawn) [CBK283424]	51.0564
Cc1cc(O)cc(=O)n1Cc1ccccn1 [CBK291159]	96.7571
CCCC(=O)N1CCCC([C@@H]2C[C@H](C(F)F)n3nc(C)cc3N2)C1 (stereo partly drawn) [CBK284721]	107.808
Cn1ccnc1Sc1ncccc1C(F)(F)F [CBK093759]	99.1655
CC1(C)[C@H](Cc2cc(CN3CCOCC3)on2)C[C@@H]1NC(=O)C1CC1 [CBK289246]	116.357
N#CCCCN1CCC2(CC1)OCCc1c2[nH]c2ccc(Br)cc12 [CBK040105]	74.921
COc1ccc(-c2nn(CN3CCC(C(N)=O)CC3)c(=S)n2-c2ccccc2)cc1OC [CBK264299]	111.165

Compound	% of control remaining
IC1COC(c2ccccc2)OC1 (stereo not drawn) [CBK021109]	67.5829
CCOC(=O)N1CCC(NS(=O)(=O)c2ccc(F)cc2)CC1 [CBK045455]	122.988
O=C(Cc1ccc(F)cc1)N1CCC(c2cccc(Cc3ccccc3F)n2)CC1 [CBK286213]	75.0755
Cc1cccc(N2C(=O)c3ccc(C(=O)c4ccc5c(c4)C(=O)N(c4cccc(C)n4)C5=O)cc3C2=O)n1 [CBK263069]	95.889
Cc1ccc(S(=O)(=O)NC[C@H]2C[C@@H]3CC[N@]2C[C@@H]3CN2CCOCC2)cc1 [CBK288758]	99.5233
CC(C)CC(=O)N1CCC(c2nnc3n2CCCCC3)CC1 [CBK284629]	99.1939
COc1cncc(C(NC(=O)c2ccn3nnnc3c2)[C@H]2C[C@@H](O)C2)c1 (stereo partly drawn) [CBK306686]	38.0036
Cc1nn(C)cc1-c1cc(C(=O)Nc2ccccc2C2CC2)on1 [CBK281412]	107.972
O=C(Nc1cccc2[nH]ccc12)c1ccoc1 [CBK159659]	104.136
O=C(Cc1ccc2c(c1)CCCO2)Nc1c(OCCn2cccn2)ccc2ccccc12 [CBK285679]	102.048
CS(=O)(=O)c1ccc(Cn2ccnc(N3CCN(C(=O)Cc4cccs4)CC3)c2=O)cc1 [CBK153773]	95.0263
CC(C)C1OC(NCc2ccc(Cl)cc2)=NC1=O (stereo not drawn) [CBK070352]	96.2518
Cc1nc(N)nc(NCCC2CCCOC2)c1Cl (stereo not drawn) [CBK307353]	31.5607
O=[N+]([O-])c1cccc(C(Nc2cccnc2)c2cc(Cl)c3cccnc3c2O)c1 (stereo not drawn) [CBK268629]	36.847
CC(=O)N1CCc2c(sc(NC(=O)c3ccc(C)cc3)c2C#N)C1 [CBK304411]	5.672
CSc1ccccc1NC(=O)Cn1c(-c2nonc2N)nc2ccccc21 [CBK266919]	58.1029
CCNC(=O)N1CC2(CCN(Cc3csc(C)n3)CC2)c2ccccc21 [CBK126712]	103.541
CCCCC(=O)N1CCC2(CC1)CC(=O)c1ccc(OCc3ccccc3)c(C)c1O2 [CBK156493]	72.1539
COc1ccccc1N1CCn2c1nc1c2c(=O)n(CCN2CCOCC2)c(=O)n1C [CBK269265]	139.569
Cc1ccc(/C=C/C(=O)N2CCC3(CC2)CC(=O)c2cc(Cl)ccc2O3)cc1 [CBK156439]	105.579
O=C1CC[C@H](NC(=O)c2cccs2)C(c2cccnc2)N1 (stereo partly drawn) [CBK282901]	98.7717
Cc1nnc(CCNC(=O)c2cccc(C#N)c2)n1C [CBK306017]	73.0778
Cc1nc(N)sc1-c1nnc(SC/C=C/c2ccccc2)n1C [CBK269383]	105.925
Cn1cc(C(=O)OCc2cccc(S(=O)(=O)N3CCOCC3)c2)cn1 [CBK305721]	60.2021
CN1CCC2CN(CCCC(c3ccc(F)cc3)c3ccc(F)cc3)CCN2C1=O (stereo not drawn) [CBK024865C]	49.8978
